# Assay results from PubChem BioAssay (NCATS).
# Inconclusive results, whose numbers are uncertain, are shown with a selection of clear calls. For part of these data: A potency beside an inconclusive call is a rough fit, not a confirmed value. Active and inactive are the calls of the source. Unless noted, calls follow the shape of the dose curve; as a rule, active = well fitted curve in the direction sought with a large enough effect; inconclusive = small, poorly fitted or top-dose-only effect, or another doubt; inactive = no such curve, though single readings can be large; an effect the other way counts as inactive or inconclusive.
# Experiments:
# [1] = P-glycoprotein substrates identified in KB-8-5-11 adenocarcinoma cell line, qHTS therapeutic library screen (AID 1346987); also: nearly all actives have a fitted effect of over 65% in size; as to activity change, negative = cytotoxicity: % is scaled to controls: 0 for no effect and ±100 for the full control effect
# Method in brief: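 KB-8-5-11, a colchicine-selected P-gp-overexpressing KB-3-1 subline, was grown without colchicine for the assay. Cells were seeded at 500 cells/well, dosed in concentration-response and incubated 72 h at 37 degree C, 5% CO2. Viability was read by CellTiter-Glo luminescence.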
# [2] = Primary qHTS for inhibitors of nuclear receptor binding SET domain protein 2 (NSD2) in an RCH-ACV wild type WT cells (2C) (AID 1645877); conditions: activity change, negative = cell killing: at 44.9 µM (top of the series) unless noted; also: nearly all actives have a fitted effect of over 70% in size
# HEK293 = experiment: Cytotoxic Profiling of Annotated Libraries Using Quantitative High-Throughput Screening (AID 1296008); conditions: Five cell lines viability, CellTiter-Glo ATP luminescence, 48-72 h; max response: stronger effect = lower value; also: nearly all actives have a fitted effect of over 60% in size; as to max response: % is scaled to controls: 0 for no effect and ±100 for the full control effect
# Method in brief: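 Compounds were pin-transferred onto cells and incubated 48 or 72 hr at 37 degree Celsius, 95% humidity. CellTiter-Glo was added, plates sat 10 min at room temperature, then ATP-coupled luminescence was imaged as the viability read-out.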
# C33A = experiment: Primary qHTS to identify gynecologic anti-cancer compounds using libraries of approved drugs and bioactive compounds (AID 1345084); conditions: Gynecologic cancer cell panel viability, ATPlite luminescence, 48 h; series mostly up to 57.5 µM; also: nearly all actives have a fitted effect of over 55% in size; as to activity change, negative = cytotoxicity: % is scaled to controls: 0 for no effect and ±100 for the full control effect
# Method in brief: (§1)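 Cells, 1,000 per well, plated 16 h, then exposed 48 h at 37 C to compounds. Viability by ATPlite luminescence after 15 min at room temperature.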
# HeLa = experiment: as above; conditions: Gynecologic cancer cell panel viability, ATPlite luminescence, 48 h; activity change, negative = cytotoxicity: at 57.5 µM (top of the series)
# Method in brief: as §1
# Hek293T = experiment: as above; conditions: Gynecologic cancer cell panel viability, ATPlite luminescence, 48 h, control line for the selectivity index; activity change, negative = cytotoxicity: at 57.5 µM (top of the series) unless noted
# Method in brief: as §1
# OV90 = experiment: as above; conditions: Gynecologic cancer cell panel viability, ATPlite luminescence, 48 h; series mostly up to 57.5 µM
# Method in brief: as §1
# PA-1 = experiment: as above; conditions: Gynecologic cancer cell panel viability, ATPlite luminescence, 48 h; series mostly up to 57.5 µM
# Method in brief: as §1
# SKOV3 = experiment: as above; conditions: Gynecologic cancer cell panel viability, ATPlite luminescence, 48 h; series mostly up to 57.5 µM
# Method in brief: as §1
# Tov112D = experiment: as above; conditions: Gynecologic cancer cell panel viability, ATPlite luminescence, 48 h; series mostly up to 57.5 µM
# Method in brief: as §1
# [3] = Primary qHTS for inhibitors of nuclear receptor binding SET domain protein 2 (NSD2) in an isogenic RCH-ACV NSD2 p.E1099K mutant (9B) (AID 1645876); also: nearly all actives have a fitted effect of over 70% in size
# [4] = test system: Zika virus NS2B-NS3 protease (unlinked complex); experiment: Primary screen GU Rhodamine qHTS for Zika virus inhibitors: Unlinked NS2B-NS3 protease assay (AID 1347159); also: nearly all actives have a fitted effect of over 60% in size
# Method in brief: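 Percent inhibition derives from the 15-min fluorescence change (ex 480, em 540 nm), normalized to no-enzyme and no-inhibitor wells. Reactions contained 25 nM NS2B-NS3 complex and 1.5 microM substrate in 10 mM Tris-HCl pH 8.0.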
# [5] = Primary fluorescence-based thiol-reactive (MSTI) qHTS assay for identification of artifact compounds. (AID 1845221);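 also: thiol-reactive compounds lower the probe fluorescence signal; nearly all actives have a fitted effect of over 65% in size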
# Method in brief: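 MSTI probe at 4 uM final in 2% DMSO/PBS pH 7.4; compounds, 1 h at room temperature in dark. Fluorescence Ex/Em 525/598 nm, normalised to Acetyl-MSTI and MSTI, fitted to 4-parameter Hill.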
# CASKI = experiment: Primary qHTS to identify gynecologic anti-cancer compounds using libraries of approved drugs and bioactive compounds (AID 1345084); conditions: Gynecologic cancer cell panel viability, ATPlite luminescence, 48 h; series mostly up to 57.5 µM; also: nearly all actives have a fitted effect of over 55% in size; as to activity change, negative = cytotoxicity: % is scaled to controls: 0 for no effect and ±100 for the full control effect
# Method in brief: as §1
# CAOV3 = experiment: as above; conditions: Gynecologic cancer cell panel viability, ATPlite luminescence, 48 h; activity change, negative = cytotoxicity: at 57.5 µM (top of the series)
# Method in brief: as §1
# Tov-21-G = experiment: as above; conditions: Gynecologic cancer cell panel viability, ATPlite luminescence, 48 h; activity change, negative = cytotoxicity: at 57.5 µM (top of the series) unless noted
# Method in brief: as §1
# [6] = molecular target: Cytochrome P450 2D6 (Homo sapiens) (UniProt P10635); experiment: Cytochrome P450 family 2 subfamily D member 6 (CYP2D6) small molecule antagonists: luciferase biochemical (cell-free) qHTS assay (AID 1645840; active = well fitted curve in the direction sought with a large enough effect in the repeat runs; inconclusive = weak or mixed curves; inactive = no such curve, though single readings can be large; an effect the other way counts as inactive or inconclusive; also: nearly all actives have a fitted effect of over 55% in size)
# Method in brief: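 P450-Glo luminescent screen: recombinant CYP2D6 enzyme–proluciferin substrate mix preincubated with compound 10 min at room temperature, then NADPH regeneration added for 1 h at room temperature. Detection reagent added for 20 min; luciferin light read as relative luminescence units.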
# Potency is read from the fitted curve at half-maximal effect; tags tell the direction and shape of the fitted curve.
# UniProt P10635, sequence (P10635 whole entry, looked up): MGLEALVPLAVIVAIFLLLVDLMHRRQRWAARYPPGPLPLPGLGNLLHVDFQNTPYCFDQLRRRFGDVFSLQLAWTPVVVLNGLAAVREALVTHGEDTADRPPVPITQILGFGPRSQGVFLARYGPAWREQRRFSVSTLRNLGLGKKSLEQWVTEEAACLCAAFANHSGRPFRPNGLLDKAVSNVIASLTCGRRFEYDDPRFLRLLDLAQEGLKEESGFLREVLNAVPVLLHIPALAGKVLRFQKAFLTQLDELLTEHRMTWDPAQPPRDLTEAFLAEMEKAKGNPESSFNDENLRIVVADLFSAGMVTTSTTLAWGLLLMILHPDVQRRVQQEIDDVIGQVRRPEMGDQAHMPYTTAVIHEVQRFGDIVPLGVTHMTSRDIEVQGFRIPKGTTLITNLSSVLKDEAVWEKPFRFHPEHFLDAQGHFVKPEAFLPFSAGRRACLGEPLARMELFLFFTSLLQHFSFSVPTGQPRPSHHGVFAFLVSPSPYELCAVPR
smiles,measurement,setting,value
O=C(CCCCC1CCCCC1)N1CCC(c2cnc[nH]2)CC1,Potency,[1],"inconclusive: 13 µM [inhibitor, partial curve]"
same,Potency,[2],"inconclusive: 20.5 µM [inhibitor, partial curve]"
same,Potency,HEK293,active: 5.8 µM
same,Potency,C33A,"inconclusive: 15.8 µM [cytotoxic, partial curve]"
same,Potency,HeLa,inactive
same,Potency,Hek293T,"inconclusive: 31.6 µM [cytotoxic, single point]"
same,Potency,OV90,"inconclusive: 15.8 µM [cytotoxic, partial curve, poor fit]"
same,Potency,PA-1,"inconclusive: 35.5 µM [cytotoxic, single point]"
same,Potency,SKOV3,"inconclusive: 39.8 µM [cytotoxic, single point]"
same,Potency,Tov112D,inactive
CC1=CC2/C=C(\C)CCC(O)C/C=C/C(=O)OC23C(=O)NC(CC(C)C)C3C1C (stereo unspecified),Potency,[3],"inconclusive: 8.93 µM [inhibitor, single point]"
same,Potency,[2],"inconclusive: 12.6 µM [inhibitor, single point]"
same,Potency,HEK293,"inconclusive: 14.2 µM [inhibitor, single point]"
same,Potency,C33A,inactive
same,Potency,HeLa,inactive
same,Potency,SKOV3,inactive
CC1=C2C[C@@]3(C)C(CCC[C@@H]3C)C(O)C2OC1=O (stereo partly specified),Potency,[1],inactive
same,Potency,[3],"inconclusive: 23 µM [inhibitor, single point]"
same,Potency,[2],"inconclusive: 20.5 µM [inhibitor, single point]"
same,Potency,HEK293,"inconclusive: 18.4 µM [inhibitor, single point]"
same,Potency,C33A,inactive
O=C(OCc1ccccc1O[C@@H]1O[C@H](CO)[C@@H](O)[C@H](O)[C@H]1O)C1(O)C=CCCC1O (stereo partly specified),Potency,[1],inactive
same,Potency,[4],"inconclusive: 2.51 µM [inhibitor, partial curve, poor fit]"
same,Potency,[3],inactive
same,Potency,[5],active: 5.82 µM
same,max response,HEK293,inactive: 2.2%
same,Potency,C33A,inactive
same,Potency,CASKI,inactive
same,Potency,SKOV3,inactive
CC1=CC2/C=C(\C)CCC(O)C(=O)C(O)CC(=O)C23C(=O)NC(CC(C)C)C3C1C (stereo unspecified),Potency,[2],active: 6.32 µM
same,Potency,HEK293,"inconclusive: 14.2 µM [inhibitor, single point]"
same,Potency,C33A,"inconclusive: 17.8 µM [cytotoxic, single point]"
same,Potency,CAOV3,"inconclusive: 1.78 µM [cytotoxic, full curve, poor fit]"
same,Potency,PA-1,inactive
same,Potency,SKOV3,"inconclusive: 20 µM [cytotoxic, single point]"
C=C1C(=O)O[C@@H]2[C@H]1CC[C@H](C)[C@]1(CCC(=O)O1)C2(C)O (stereo partly specified),Potency,[1],inactive
same,Potency,[5],inactive
same,Potency,HEK293,"inconclusive: 29.1 µM [inhibitor, single point]"
same,Potency,C33A,inactive
same,Potency,Hek293T,"inconclusive: 25.1 µM [cytotoxic, single point]"
same,Potency,Tov-21-G,"inconclusive: 31.6 µM [cytotoxic, single point]"
Nc1nc2c(cnn2CCCc2ccc(O)cc2)c2nc(-c3ccco3)nn12,Potency,[6],inactive
same,Potency,HEK293,"inconclusive: 29.1 µM [inhibitor, single point]"
same,Potency,C33A,inactive
same,Potency,CAOV3,inactive
same,Potency,SKOV3,"inconclusive: 8.91 µM [cytotoxic, full curve]"
Cc1nnc(-c2sc(NC(=O)[C@H](C(C)C)n3c(=O)[nH]c4ccccc4c3=O)nc2C)o1,Potency,[6],"inconclusive: 30.1 µM [inhibitor, single point]"
same,Potency,[2],inactive
same,max response,HEK293,inactive: -6.7%
same,Potency,C33A,inactive
same,Potency,SKOV3,inactive
same,Potency,Tov-21-G,inconclusive: 355 µM
C[C@@H]1C[C@H](C)CN(CCC(=O)Nc2ccc(Br)cc2)C1,Potency,[1],"inconclusive: 14.6 µM [inhibitor, partial curve]"
same,Potency,[6],active: 0.0674 µM
same,Potency,[3],"inconclusive: 16.3 µM [inhibitor, partial curve, poor fit]"
same,Potency,[2],"inconclusive: 16.3 µM [inhibitor, partial curve, poor fit]"
same,Potency,HEK293,"inconclusive: 29.1 µM [inhibitor, partial curve, poor fit]"
same,Potency,C33A,inactive
same,Potency,CAOV3,inactive
same,Potency,Tov112D,"inconclusive: 39.8 µM [cytotoxic, single point]"
O=C(NCCO)c1cccc(-c2cc(Nc3ccc(OC(F)(F)F)cc3)ncn2)c1,Potency,[3],active: 18.3 µM
same,Potency,HEK293,"inconclusive: 20.6 µM [inhibitor, single point]"
same,Potency,C33A,inactive
same,Potency,Hek293T,"inconclusive: 25.1 µM [cytotoxic, single point]"
same,Potency,SKOV3,inactive
same,Potency,Tov-21-G,inactive
